Read counts are not given, so values of variants with three or more changes are uncertain.
B1: CPEB3 Ribozyme (parent)
chain: UAACAGGGGGCCACAGCAGAAGCGUUCACGUCGCAGCCCCUGUCAGAUUCUGGUGAAUCUGCGAAUUCUGCUGUAUAUCUC

Variants of: B1
Experiment: self-cleavage, relative activity (ratio to wild type); higher = more cleavage; in vitro, sequencing
How it was run: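 After error-prone PCR and barcoding, CPEB3 ribozyme mutant libraries were transcribed with T7 RNA polymerase at 37°C for 5 hours, then given 15 min with DNase I before an EDTA stop, and they cleaved during both steps. Reverse transcription with template switching preceded Illumina sequencing. Relative activity divides a variant's cleaved/total read fraction by the unmutated ribozyme's. At least 5 reads were required per variant, and three batches were averaged.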

Variant | self-cleavage
G19U C50U U67C G70C U78C | 0.14
G19U U25C U48C U51C U80C | 0.1
G19U U25C U49C U51C U60C U74A | 0.07
G19U U26C U48C U80C | 0.21
G19U U31C U49C U74A | 0.18
G19U U41A G63A | 0.17
G19U U72C C81A | 0.47
A20C A21C U31C U67C | 0.3
A20C A21G U25A A28G A35U U51A | 0.04
A20C A21G U41C A77G | 0.12
A20C A35G A45G C62A | 0.61
A20C A45U U76A | 0.54
A20C A56U C62U | 0.1
A20C A56U U69A A77U | 0.19
A20C A64G A65G U78A | 0.07
A20C C29U A64G A65G U76C U78C | 0.03
A20C C39U U72C U74C U78C | 0.35
A20C G24A A47G C50U U51A U72C | 0.17
A20C G24C C32U U51A | 0.15
A20C G30A C32A A77U | 0.21
A20C U26C A45G | 0.29
A20C U26C U51A A65G | 0.04
A20C U26C U51C | 0.12
A20C U31C U49A U69C | 0.21

Variant | self-cleavage
A20C U41A U48C | 0.18
A20C U41A U67C U78A | 0.06
A20C U41C U43A A45G C59A U72C | 0.05
A20C U60A C62U U78A | 0.04
A20G A21G A28G U43C U72A | 0.2
A20G A21G A28G U60C U72C | 0.07
A20G A21G A35G A45G U48C | 0.05
A20G A21G A45U | 0.18
A20G A21G A47G U66C | 0.24
A20G A21G A56G | 0.28
A20G A21G C32A A56U A65G U69C | 0.07
A20G A21G C39A G42A U49C | 0.09
A20G A21G C39U A57G U60A | 0.15
A20G A21G C50A | 0.36
A20G A21G G24C U67C | 0.06
A20G A21G G30A A56G U67C U69A | 0.13
A20G A21G G52A U69G U72C | 0.07
A20G A21G G70U | 0.29
A20G A21G U25A C38U C44U G52C A57G | 0.11
A20G A21G U25C U41A A45U U49G A57G | 0.14
A20G A21G U26C A56G U72C U74C | 0.15
A20G A21G U31A G46A A56G | 0.05
A20G A21G U43C G73A | 0.41
A20G A21G U48C A57G | 0.35

Variant | self-cleavage
A20G A21U U25A A65G U72C | 0.07
A20G A28C A35G U67C | 1.06
A20G A28C A45G U69C U72G | 0
A20G A28G A35C U58C G73C U74C | 0.09
A20G A28G A45G | 0.15
A20G A28G A45U | 0.16
A20G A28G A47G U80C | 0.51
A20G A28G A64G U80A | 0.42
A20G A28G A64U U67C | 0.09
A20G A28G A65G A75G | 0.08
A20G A28G C29U C37U U48C U49C | 0.04
A20G A28G C32A U72C U80A | 0.23
A20G A28G U41C U54G U80A | 0.31
A20G A28G U41C U60A U69A U72C | 0.18
A20G A28G U48C U60A U78A | 0.29
A20G A28G U49C | 0.46
A20G A28U A35G U60A A65G U69C | 0.31
A20G A28U A45G U58C U72C U74C | 0.06
A20G A28U C29U A35G | 0.24
A20G A28U C32A A35G U69C | 0.12
A20G A28U C37A G42A | 0.25
A20G A28U C37A G42A U54G U78C | 0.25
A20G A28U G46U U60C | 0.25
A20G A28U U41C U43C U51G U54C A64U | 0.08

Variant | self-cleavage
A20G A35C U41A U60C | 0.33
A20G A35C U66C | 0.23
A20G A35G A45G A64U U69A | 0.21
A20G A35G A45U U48C G52C A56U U69C | 0.3
A20G A35G G42A U51C C59U U80C | 0.25
A20G A35G U41C G42C U54A A64G U66C | 0.22
A20G A35G U58C | 0.97
A20G A35G U60A U76C | 0.4
A20G A35G U67C U69C | 0.87
A20G A35G U72A | 1.09
A20G A35U A45G U49C U58C U69C | 0.05
A20G A35U A45U U67A A77U | 0.16
A20G A35U A64G U72C | 0.16
A20G A35U U48C A56U U72C | 0.07
A20G A35U U51C U54A U58C U74C | 0.1
A20G A35U U60A U67A A75U | 0.1
A20G A35U U69A | 0.2
A20G A45C A57G U74C A75G | 0.19
A20G A45G A56G | 0.27
A20G A45G A56U G61A | 0.08
A20G A45G A57G A64G U78C | 0.14
A20G A45G A64C | 0.45
A20G A45G G52U U67C U69A | 0.1
A20G A45G U51A G52A U58A | 0.17

Variant | self-cleavage
A20G A45G U72A | 0.46
A20G A45G U76G | 0.71
A20G A45U U54A | 0.36
A20G A45U U58A U72C | 0.14
A20G A45U U60C U69A | 0.07
A20G A47G A56G G63U | 0.74
A20G A47U C71A A77G | 0.09
A20G A47U U51A U66A | 0.09
A20G A56G A57G U60C U69A | 0.13
A20G A56G G61A A64U | 0.14
A20G A56G U78C | 0.44
A20G A56U U69C | 0.35
A20G A57C U80A | 0.34
A20G A57G U60C U67C | 0.27
A20G A57G U69A | 0.26
A20G A57U U69A | 0.16
A20G A64G U72G | 0.56
A20G A65G U72C | 0.43
A20G C23G A56G U60C | 0.39
A20G C23U A57G | 0.53
A20G C23U U78A | 0.12
A20G C29A C38U U54A U69C | 0.06
A20G C29A U48C A65U | 0.11
A20G C29G A65U U74C | 0.1

Variant | self-cleavage
A20G C29G U54G G55U U74C U76C | 0.33
A20G C29U U31C | 0.11
A20G C29U U49C | 0.32
A20G C32A G33C U72C | 0.11
A20G C32U A35U A57C | 0.04
A20G C32U U49C U78C | 0.3
A20G C34A U48C U78C | 0.19
A20G C34U A35G U41C A56G U66C A75G | 0.09
A20G C34U U43A | 0.27
A20G C38U U41C | 0.37
A20G C38U U51A A56G U78C | 0.09
A20G C39A A45C U60C | 0
A20G C39A U54A A56G U78C | 0.18
A20G C39A U54A U66C | 0.06
A20G C39A U54C U74C | 0.11
A20G C39G U43C U51A U66C | 0.24
A20G C39G U48A U51A | 0.17
A20G C39U U67C | 0.46
A20G C40U A45G U80G | 0.2
A20G C44U U58C U72C U74C | 0.07
A20G G22A G46A U74A U76A | 0.06
A20G G22U U51C | 0.07
A20G G24A C40U U66C U78C | 0.24
A20G G33U G70U U72A | 0.13

Variant | self-cleavage
A20G G33U U48A | 0.19
A20G G42C A57G U60A A64U | 0.06
A20G G46A A64G U74C | 0.16
A20G G46A U48C U78C | 0.15
A20G G46U G52A G53A | 0.8
A20G G63U A64G | 0.46
A20G U25A A28U A77G | 0.19
A20G U25A A35G U49A A56U U69C U80A | 0.22
A20G U25A G33A A35C G42A U80G | 0.19
A20G U25A U41A G53A A64C | 0.18
A20G U25A U41C U80C | 0.19
A20G U25A U51C U66C U78C U80C | 0.06
A20G U25A U54A A65G | 0.07
A20G U25C A35U | 0.12
A20G U25C A35U U54C U74C | 0.11
A20G U25C A47C U76C | 0.07
A20G U25C C29U | 0.31
A20G U25C C50A U60C | 0.05
A20G U25C G52A U66A | 0.16
A20G U25C U31A A35U A47G | 0.07
A20G U25C U41C A57G | 0.32
A20G U25C U48C A77G U78A | 0.17
A20G U25C U51C C59A | 0.17
